# The supplement of paper PMC5499739
# Over roughly 16,000 sequences, “Z-score” has its median near -0.37; the highest 2% begin near 3.2. The list shows a part of the results.
# Test system: RBM10 RRM1-ZnF (GST-tagged construct)
# Assay: RNAcompete 7-mer binding Z-score; higher = stronger binding preference
# Procedure: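 RNAcompete: 20 pmol GST-tagged RBM10 RNA-binding constructs were incubated with a designed RNA pool of about 241,000 sequences up to 41 nt (1.5 nmol) on glutathione beads for 30 min at 4 °C and washed. Bound RNAs were identified by microarray hybridisation. Each RNA 7-mer is scored by a one-sided Z-score of its enrichment, computed over probes that contain the 7-mer within longer pool sequences.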
row,Sequence,RNAcompete 7-mer binding Z-score
1,UCCUCGG,-0.337
2,AAACUUC,-0.678
3,GUAAUUU,-0.396
4,AGUAGAA,0.998
5,GAUGACC,-0.149
6,AGCGGAC,1.16
7,AUACUGU,-0.681
8,UAUGCCA,-0.646
9,AUUCAUA,-0.548
10,UGGUCCC,-0.171
11,AAAGCCC,-0.675
12,ACUAAUG,-0.24
13,UUAAUCA,-0.555
14,UCGGAAG,0.465
15,UUUCCAA,-0.847
16,AUGCCCG,-0.36
17,CUGAUUG,-0.223
18,GGUGACC,0.469
19,CCCGAGG,0.384
20,ACCAGUU,-0.655
21,UAUCCUG,-0.857
22,CUUCGUC,-0.854
23,GUACUUA,-0.422
24,AAAGAAA,0.017
25,GCAAUUG,0.0625

row,Sequence,RNAcompete 7-mer binding Z-score
1,AUAAUUG,-0.311
2,UGAACGA,0.0853
3,AAAUUCA,-0.668
4,UUGGUCG,0.215
5,GCCCAGA,-0.535
6,GAUGCAC,-0.155
7,CUAUUAU,-0.776
8,GCUAUAC,-0.545
9,GAUCGUU,-0.405
10,ACGUUGG,0.582
11,GUAUGCG,0.641
12,GGGGUCC,1.67
13,UGUCGUU,-0.496
14,CUGGCCU,-0.685
15,AAUGGAA,3.35
16,CGCGAAG,-0.373
17,UUCGAAU,-0.743
18,CGAACCG,-0.461
19,GAGAUGA,1.03
20,UCCACGG,-0.113
21,ACUCGUU,-0.756
22,CUUCAUC,-0.792
23,UCCCUCU,-0.714
24,CAUAAAG,-0.474
25,AUCAGUA,-0.233

row,Sequence,RNAcompete 7-mer binding Z-score
1,UUAGCGG,0.192
2,CGGGAGC,1.5
3,CUACAAC,-0.668
4,GUCGGUC,-0.214
5,ACGGGCG,1.43
6,UCUUCAU,-0.782
7,GCGCCUU,-0.678
8,GGCCAGA,-0.00246
9,GGCCGGG,1.35
10,UCCUACC,-0.753
11,AAAAGCU,-0.396
12,UGGGCCU,0.335
13,UUCUGUU,-0.633
14,AUCGAGA,0.0788
15,UAGGUAU,1.04
16,AGCAAAG,0.774
17,AUCUGAA,-0.62
18,GCUUGAC,-0.467
19,CUCAUGA,-0.675
20,ACUGCAU,-0.539
21,GGCGGGU,2.9
22,AGCUUUA,-0.613
23,UUGCUCC,-0.591
24,ACUUUUG,-0.863
25,CCUAAUG,-0.604

row,Sequence,RNAcompete 7-mer binding Z-score
1,UAAGGAA,1.64
2,CUUGACA,-0.733
3,CCUAUCG,-0.876
4,AGUCCGA,-0.685
5,CCAGCAA,-0.617
6,GCAUUCG,-0.444
7,CCUCUAC,-0.772
8,UCUGGUC,-0.461
9,AUUGUUU,-0.535
10,AUUUACA,-0.675
11,GGCCAUC,-0.584
12,GGACAUU,0.335
13,UUACUGC,-0.779
14,UGACGCC,-0.353
15,CGUUCGG,-0.285
16,AAAAGCC,-0.681
17,CAGGUUU,0.56
18,CAACAAU,-0.61
19,GGAAGAC,1.97
20,AGCUGUC,-0.802
21,AGGGCGA,2.39
22,CUAUCUC,-0.802
23,GGGUUAG,4.38
24,UGAAUCC,-0.516
25,GCUCUAU,-0.652

row,Sequence,RNAcompete 7-mer binding Z-score
1,CGCUUAG,-0.6
2,GCGAGGU,2.06
3,AAACCUU,-0.984
4,GAGGUCC,-0.103
5,UGAAGUU,-0.0414
6,UGAUCCA,-0.694
7,AGGUGCG,1.97
8,UUGUUAA,-0.578
9,GGUCCCU,-0.334
10,AGGAAUC,-0.0739
11,CAAGCGA,0.0788
12,UAGCUAU,-0.574
13,GCUAACU,-0.331
14,AGCCAUC,-0.75
15,CUAAUGA,-0.448
16,CAGCGCC,-0.48
17,UAUACCA,-0.655
18,GUCUUGC,-0.763
19,CCGUUCA,-0.785
20,ACUUGCG,-0.678
21,AUUAUUG,-0.405
22,UUGUCAA,-0.591
23,UGGGCCC,0.332
24,CGUCCCG,-0.594
25,CUCCGCU,-0.652

row,Sequence,RNAcompete 7-mer binding Z-score
1,UUUAUGU,-0.386
2,GAUAGAC,0.069
3,CAUACCG,-0.72
4,UUUGCGU,-0.642
5,UAUACGA,-0.412
6,GUAAAUC,-0.386
7,AUGCUAU,-0.474
8,UGUGCGC,-0.00896
9,CAAUGCU,-0.607
10,ACGUGUU,-0.389
11,GAGCUCC,-0.47
12,AAAUCAG,-0.36
13,GAUAGGU,2.94
14,UGAAAGC,-0.0577
15,GAUACCC,-0.487
16,CAUAGGC,-0.305
17,AUCCGCG,-0.626
18,AAAUAGG,1.07
19,GAUACCA,-0.451
20,GGUAUGC,1.48
21,AAAUACA,-0.275
22,UUGGUAU,0.647
23,AAAUACU,-0.587
24,ACCGAGU,-0.642
25,GACAACG,0.102

row,Sequence,RNAcompete 7-mer binding Z-score
1,ACUGUGC,-0.535
2,GCAAGAA,0.27
3,CUCGGAU,-0.184
4,GUUAGUG,1.03
5,GUCCGCC,-0.662
6,UGAGAUC,-0.36
7,CUCAGCU,-0.707
8,GGACGAG,2.1
9,UUAUUAU,-0.444
10,CGCACAU,-0.535
11,GCCCGCA,-0.451
12,UUGACUU,-0.698
13,AGACUGU,-0.61
14,GCUUGUG,-0.415
15,AGGGAUC,1.02
16,GAAUUGU,0.199
17,CUCCGAA,-0.659
18,AGCCCGG,-0.366
19,GGUCUAC,-0.22
20,CGCCUGA,-0.584
21,AUGUUAG,0.153
22,CAUGGGA,1.95
23,GUUGGCG,1.47
24,CGGUAAG,1.26
25,GUAAGUA,0.368

row,Sequence,RNAcompete 7-mer binding Z-score
1,ACUCUCU,-0.808
2,CGCCUUA,-0.954
3,GUCUCCC,-0.288
4,CUGAGCA,-0.262
5,GUCGACA,-0.236
6,AAUUGUG,0.137
7,UCCCAUA,-0.863
8,AGCCAGA,-0.422
9,UUGUCAC,-0.597
10,AGUAUGA,0.215
11,CUAAUAG,-0.402
12,UAAUGCC,-0.766
13,AUUGCCC,-0.802
14,UAAAGAA,-0.0187
15,CCGUGUA,-0.246
16,AUUUCUG,-0.763
17,CAUCUUC,-0.997
18,UCCCAAA,-0.779
19,CCCGGUU,-0.477
20,CACUGAC,-0.474
21,AAUCUGG,-0.227
22,ACCUCGA,-0.62
23,GCUGAAC,-0.223
24,CGUGGUG,1.52
25,GUUGUGU,0.222

row,Sequence,RNAcompete 7-mer binding Z-score
1,GUCUGGU,0.111
2,GAGCACC,-0.175
3,UCAGAAU,-0.487
4,AGACCGG,-0.321
5,CUGUAGC,-0.535
6,AGACUAU,-0.72
7,ACUGCCG,-0.574
8,UCCCCCC,-0.188
9,GACCUCG,-0.691
10,GAGCUCG,-0.266
11,CAUUAGC,-0.646
12,GCUUUGA,-0.698
13,UUACAGU,-0.223
14,ACAUAUC,-0.636
15,ACCACAG,-0.314
16,GGCAUUU,-0.474
17,AGGUCUC,-0.5
18,GGGGAAG,4.31
19,UUGUAUU,-0.61
20,GGUAUUA,1.25
21,ACUUCGU,-0.73
22,UGCCUCG,-0.428
23,GAGCCGA,-0.503
24,GAUUAAC,-0.201
25,ACCUUGU,-0.798

row,Sequence,RNAcompete 7-mer binding Z-score
1,CCUUCUU,-0.72
2,AGAACAU,-0.402
3,GCAUUUG,-0.477
4,GAUGCUC,-0.399
5,CGCGGCG,1.25
6,CGUAAGU,-0.392
7,GCACGGU,0.313
8,AGAAAGA,0.495
9,UCGCUGU,-0.571
10,UAGCCUU,-0.746
11,GCGUGGG,3.53
12,UUGGUGC,1.53
13,CAGGGUA,2.99
14,GGACAUG,1.76
15,GUCUAAU,-0.422
16,GUACGCA,-0.266
17,CAGACGC,-0.49
18,UGUCUUA,-0.688
19,AUCCCUG,-0.779
20,AGCGUAA,0.144
21,CCCCCAA,-0.415
22,ACUUCCG,-0.795
23,GACUUCU,-0.938
24,GGUGUCU,0.66
25,ACUCAAG,-0.249

row,Sequence,RNAcompete 7-mer binding Z-score
1,CUAGACC,-0.655
2,GUCCAUU,-0.818
3,CUCCCCC,-0.295
4,CCGUAAG,-0.694
5,UACUCCA,-0.776
6,CUACGGU,-0.262
7,ACACAGC,-0.412
8,ACAUCAC,-0.617
9,CCUGCGC,-0.568
10,CAUGAGU,-0.0414
11,AUCUCCA,-0.828
12,AGUUCAC,-0.668
13,AUGACGA,0.209
14,CUGUUCC,-0.841
15,GAGCGUC,-0.311
16,UGGGUGA,3.38
17,UCUAAUA,-0.561
18,GGUCCUC,-0.243
19,AAGGGCC,1.01
20,AAGAGCG,0.836
21,CCAACGC,-0.535
22,GGUAAGU,1.61
23,GUGUCAU,-0.259
24,CGGGCCU,-0.24
25,GGUGGUC,2.06

row,Sequence,RNAcompete 7-mer binding Z-score
1,GCUUUGU,-0.522
2,AGAUUGU,-0.0739
3,CUCGCUU,-0.704
4,AGAUUGC,-0.444
5,CUAUGUC,-0.795
6,AAUAUGU,-0.223
7,CACAGAA,-0.36
8,GAGAUGG,3.54
9,CCUAUGU,-0.759
10,CUUAAGA,-0.626
11,UAUGUGA,0.118
12,GCACUCG,-0.34
13,UAUCCCC,-0.652
14,ACAUAAA,-0.584
15,ACUCGCA,-0.678
16,CUUAUCG,-0.688
17,UCAACAC,-0.461
18,UGAUGCC,-0.558
19,CGUGCAC,-0.236
20,GCAAGUG,0.852
21,GUAAACG,0.465
22,AGCGUAC,-0.415
23,GUGUCAC,-0.308
24,CGCGUGU,-0.366
25,CUCGAGC,-0.594

row,Sequence,RNAcompete 7-mer binding Z-score
1,GCCCAGU,-0.61
2,CUACUGA,-0.659
3,GAAGCCG,-0.227
4,CUAAACG,-0.412
5,CUACUCG,-0.565
6,CGAAGAA,0.0885
7,GCAUCGA,-0.22
8,CUGUUUG,-0.49
9,CAAAUUA,-0.604
10,CUGUCAG,-0.386
11,GCUUAUU,-0.795
12,AUCUGCA,-0.831
13,UCGCCCA,-0.607
14,UAUCACC,-0.782
15,AUCCCAU,-0.818
16,UAAAGCG,0.29
17,UUGACUA,-0.467
18,CCCGGGA,0.235
19,GUAAUAC,-0.171
20,CGGGAAC,1.52
21,ACUCCGG,-0.285
22,UCGACUC,-0.808
23,CGUGCAU,-0.357
24,CACGUCG,-0.308
25,GGUGGCC,1.27

row,Sequence,RNAcompete 7-mer binding Z-score
1,GUUCUAU,-0.717
2,UUGGGGC,1.95
3,AAUAACC,-0.789
4,UGGAUUU,0.621
5,GUCACCG,-0.347
6,CGGAGCA,0.709
7,AUUCGGA,-0.0772
8,GAGGAUU,1.21
9,CUAGCUC,-0.626
10,GUCGCCC,-0.383
11,GGUAAAC,0.959
12,UGCCCUG,-0.34
13,GAAUGAU,0.189
14,CGGGUAG,2.18
15,CUUUUUA,-0.906
16,GUGUACA,0.397
17,CAGCCGC,-0.47
18,CAUGAAC,-0.331
19,AGUAGUC,-0.376
20,ACUAGGA,0.719
21,CACCUGC,-0.652
22,GACAAUU,-0.256
23,AGAGCCU,-0.922
24,AACUGUG,0.105
25,AACCACC,-0.584

row,Sequence,RNAcompete 7-mer binding Z-score
1,CGUGAUU,-0.353
2,AGUCAUG,-0.116
3,AAAACAC,-0.441
4,GGAGAUA,1.94
5,CGAGGGU,3.7
6,GUCAUUG,-0.253
7,ACAGAUG,0.452
8,CUUAGAU,-0.594
9,GUGUAAA,0.618
10,CUUAUCA,-0.733
11,AAAAGCA,-0.227
12,CUGCUGU,-0.626
13,GGGCAAC,1.84
14,AAUCGUU,-0.662
15,AACCCAC,-0.574
16,UUAUUGA,-0.555
17,CCGGGAG,0.904
